Experimental data reported in PubChem BioAssay AID1963576 (National Center for Advancing Translational Sciences (NCATS), 2024).
In all, about 46,000 compounds went through this assay and about 60 (0.1%) were called active. Not shown: some 3% with an inconclusive outcome. Calls come from the whole dose curve; as a rule, active = well fitted inhibition curve with a large enough effect; inconclusive = small, poorly fitted or top-dose-only effect; inactive = no such curve, though single readings can be large or run the other way. The list shows a part of the results.

Experiment: Primary qHTS assay for Inhibitors of ovarian cancer metastasis using an organotypic tumor microenvironment (TME) model.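 For activity change, negative = inhibition: plate controls were DMSO wells for no effect and tomatine positive control wells for full effect.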 Note: nearly all actives have a fitted effect of over 65% in size.
Conditions: SKOV3ip1-GFP adhesion/invasion on 3D omental model, fluorescence; series mostly up to 45.8 µM; activity change, negative = inhibition: at the top concentration
Method in brief: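 Adhesion/invasion was scored as fixed GFP-labeled SKOV3ip1 cell counts (488/509 nm), normalized to DMSO and tomatine controls. Cancer cells in serum-free medium, with four compound doses (0.36-46 umol/L), sat 2 hr at RT then 16 hr at 37 C on a 48 hr fibroblast/mesothelial/ECM culture.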

Activity change, negative = inhibition, inactive:
CCOC(=O)CSc1nc2ccccc2c(=O)n1CCc1ccc(OC)c(OC)c1 0.329%
COc1ccc(-c2noc(-c3cccnc3NCc3ccco3)n2)cc1 -2.55%
Cc1cccc(-n2c(=O)c3c(c4cc(C)ccc4n3C)n(CC(=O)NCCC3=CCCCC3)c2=O)c1 2.45%
O=C(NCc1ccc2c(c1)OCO2)c1ccc2c(c1)N(Cc1cccc(Cl)c1)C(=O)c1ccccc1S2 -5.68%
Cc1ccc(C(=O)c2sc(Nc3ccccc3F)c(S(=O)(=O)c3ccccc3)c2N)c(C)c1 -5.39%
Cc1cccc(N2CCN(C(=O)C3CCN(S(=O)(=O)c4c(C)noc4/C=C/c4ccccc4F)CC3)CC2)c1C -5.78%
CCN1CCN(C(=O)c2ccc3c(c2)N(Cc2ccc(Cl)cc2)C(=O)c2ccccc2S3(=O)=O)CC1 -8.13%
COc1ccc(C(=O)N(Cc2sccc2C)C2CCS(=O)(=O)C2)cc1Cl (stereo not drawn) -15%
CCOC(=O)c1c(Nc2cccc(O)c2)nnc(-c2ccccc2)c1-c1ccccc1 -2.99%
COc1ccc(Cl)cc1NC(=O)Cn1nnc2sc3c(c2c1=O)CCC(C(C)(C)C)C3 (stereo not drawn) 0.426%
Cc1ccc(Cl)cc1N1CCN(C(=O)CN2C(=O)COc3ccc(S(=O)(=O)N4CCOCC4)cc32)CC1 -1.02%
CCc1cccc(C)c1NS(=O)(=O)c1c(C(=O)N2CCCCCC2)c(C)n(C)c1C 3.19%
Cc1cc(C)c(Cn2c3ccccc3c3cnn(CC(=O)NCCc4ccccc4)c(=O)c32)c(C)c1 0.792%
O=C(NCc1ccc(F)cc1)c1ccc(CSc2nc3ccncc3n2Cc2ccc(F)cc2)cc1 -10.3%
CC(=O)c1ccc(NC2=NS(=O)(=O)c3ccccc32)cc1 4.12%
O=C(Nc1nnc(S(=O)(=O)N2CCCCCC2)s1)c1ccc(Br)cc1 -0.568%
COc1ccc(CCNC(=O)c2ccc3c(c2)CCN3S(=O)(=O)c2ccc(Cl)cc2)cc1 5.11%
CCOc1ccccc1C1CC(=O)NC(C)=C1C(=O)OC1CCCCCC1 (stereo not drawn) -25.4%
COc1ccc(NC(=O)C2CCCN(S(=O)(=O)c3cn(C)cn3)C2)cc1Cl (stereo not drawn) -13%
COc1ccc(-n2c3c(c(=O)[nH]c2=O)C(NC(C)=O)(C(F)(F)F)C(=O)N3)cc1 (stereo not drawn) -4.74%
Cc1cccc(Oc2nc3ccccn3c(=O)c2/C=C(\C#N)c2nc3ccccc3s2)c1C 2.87%
Cc1ccc(NC(=O)CSc2nccn2C2CCCC2)cc1 -0.908%
COc1ccc(OC)c(NC(=O)c2ccc(-c3nc(CSc4ccccc4)c(C)o3)cc2)c1 3.13%
CSc1cccc(NS(=O)(=O)c2ccc3[nH]cc(C(=O)N4CCCC4)c(=O)c3c2)c1 0.715%
CCCCn1cc(S(=O)(=O)c2ccc(CC)cc2)c(=O)c2cc(F)c(N3CCCC(C)C3)cc21 (stereo not drawn) 2.69%
COc1ccccc1CCNC(=O)c1ccc(NC(=O)N2CC(C)Sc3ccccc32)cc1 (stereo not drawn) 0.621%
COc1cc(OC)c(NC(=O)c2c(C)nn(-c3ccc(C)cc3)c2-n2cccc2)cc1Cl 9.17%
Cc1cc(C)cc(NC(=O)C2CCCN2S(=O)(=O)c2ccc3c(c2)C(C)(C)C(=O)N3C)c1 (stereo not drawn) 22.5%
COc1ccccc1NC(=O)c1oc2ccccc2c1NC(=O)c1c(F)cccc1F -8.2%
CCOC(=O)c1ccc(NC(=O)c2ccc3c(c2)c(C)c(C)n3Cc2ccc(F)cc2)cc1 -0.292%
COc1ccc(Cn2cc(C(=O)c3ccc(Cl)cc3)c(=O)c3cc4c(cc32)OCO4)cc1 -11.4%
Cc1cc(C)c(Cn2c3ccccc3c3cnn(CC(=O)NC4CCCCCC4)c(=O)c32)c(C)c1 -2.48%
Cc1ccc(-n2nc3c(N4CCC(C(=O)N5CCC(C)CC5)CC4)nnc(C)c3c2C)cc1 1.54%
COc1cc(OC)cc(C(=O)Nc2ccc(S(=O)(=O)N3CCCCC3c3cccnc3)cc2)c1 (stereo not drawn) -2.8%
O=C(Nc1cccc(Cl)c1Cl)c1cc(S(=O)(=O)N2CCC3(CC2)OCCO3)ccc1F -3.53%
CCc1ccc(Nc2nn3c(=O)c4cc5c(cc4nc3s2)OCO5)cc1 4.39%
COC(=O)c1cc2oc3ccccc3c2n1Cc1nc(-c2cccc(Cl)c2)oc1C 2.3%
CC(C)(Sc1cc(C(C)(C)C)c(O)c(C(C)(C)C)c1)Sc1cc(C(C)(C)C)c(O)c(C(C)(C)C)c1 -1.1%
CC(=O)Nc1nonc1-c1nnc(SCc2ccccc2C)n1C -12.7%
Cc1ccc(C2=Nc3ccccc3N(CC(=O)NCc3ccc(Cl)cc3)C(=O)C2)cc1C 12%
CCc1ccccc1NC(=O)Cc1ccc(-n2c(C)nc3cccnc32)cc1 9.87%
COc1cccc(-c2ccc3c(N)c(C(=O)Nc4ccc(Cl)cc4F)sc3n2)c1 -12%
O=C(CSc1oc(-c2ccccc2)nc1S(=O)(=O)c1ccc(Br)cc1)NC1CCCCC1 4.15%
O=C(NCCN1CCN(c2ccccc2F)CC1)C1COc2ccccc2C1 (stereo not drawn) 1.52%
CCn1c(=O)c2cc(C(=O)Nc3cc(C)c(Cl)cc3OC)sc2c2ccccc21 24.8%
Cc1cc(C)n(-c2nc3cc(Cl)c(Cl)cc3nc2Nc2ccc(F)cc2C)n1 1.19%
Cc1ccc(NC(=O)c2cc3c(Cl)nc4ccc(C)cc4c3s2)c(Cl)c1 -1.35%
COc1ccc(NC(=O)CSc2nc3ccccc3n2CC(=O)N2CCCC(C)C2)cc1 (stereo not drawn) 2.35%
Cc1ccc(C)c(N2CCN(C(=O)c3cc4c(=O)n(Cc5cccnc5)ccc4nc3C)CC2)c1 -6.49%
CCOC(=O)c1sc(NC(=O)c2nc3ncccn3n2)c(C(=O)OC(C)C)c1C 5.51%
COc1ccc(CNC(=O)c2cc(-c3cccs3)nc3ccccc23)c(OC)c1 -2.77%
CCOc1ccccc1N1CC(c2nc3ccccc3n2CCOc2ccc(OC)cc2)CC1=O (stereo not drawn) -12.9%
CC(=O)N(Cc1cccnc1)c1nc2c(C)cc(C)cc2s1 8.47%
Cc1ccc(-c2nc3ccccn3c2Nc2c(C)cccc2C)o1 10.9%
CC1CCc2c(sc3nnn(Cc4ccccc4)c(=O)c23)C1 (stereo not drawn) 10.6%
Cn1cnnc1SCC(=O)Nc1cc(C(=O)O)cc(C(=O)O)c1 -2.13%
COc1ccc(-c2ccc(CNc3ccc4[nH]c(=O)[nH]c4c3)o2)cc1Cl 8.05%
COc1ccc(S(=O)(=O)c2c(Nc3ccc(C)cc3)sc(C(=O)c3ccc(C)cc3)c2N)cc1 -1.93%
Cc1ccc(-n2nc(C)c3c(C)cc(=O)n(CC(=O)Nc4ccc(Br)cc4F)c32)cc1 0.987%
Cc1cc(=O)n2[nH]c(NCc3ccc(F)cc3)nc2n1 -5.59%
COc1ccc(NC(=O)c2sc3nc4c(cc3c2N)CN(C(C)C)CC4)c(OC)c1 -7.9%
COc1cc(-c2noc(CSc3nc(-c4ccccc4)cc(=O)[nH]3)n2)cc(OC)c1OC -7.42%
Cc1cccc(C(=O)NCC(c2ccc3c(c2)OCO3)N2CCN(c3ccccc3F)CC2)c1 (stereo not drawn) -13.2%
Cc1ccc(Cl)cc1NC(=O)Nc1c(C)n(C)n(-c2ccccc2)c1=O 0.888%
CCOC(=O)CSc1nc2ccc(NC(=O)c3ccc(F)cc3)cc2s1 -7.28%
CCOc1ccccc1Nc1nc(-c2cccc(Cl)c2)c2c(n1)-c1ccccc1OC2 -7.71%
Cc1ccc(CSCC(=O)NCc2ccc(F)cc2)cc1 -4.77%
CCCn1c(=O)n(-c2cc(Cl)c(OC)cc2OC)c(=O)c2c3c(sc21)CN(C(C)=O)CC3 -9.12%
Cc1cc(C)c(Cn2c(CCNC(=O)c3ccco3)nc3ccccc32)c(C)c1 -19.1%
CC1=C(C(=O)Nc2cccnc2)C(c2cccc(O)c2)n2nc(SCc3ccccc3)nc2N1 (stereo not drawn) 9.14%
Cc1ccc(Nc2nnc(-c3ccc(C)c(S(=O)(=O)N4CCN(C)CC4)c3)c3ccccc23)c(C)c1 0.0317%
CCn1cc(CCC(=O)NCc2ccc(F)cc2)c2ccccc21 20.3%
Cc1ccc([C@H]2Nc3ccc(S(=O)(=O)Nc4cccc(Cl)c4C)cc3[C@H]3C=CC[C@H]32)cc1 -6.75%

outcome, inactive:
Cc1cc(=O)n2c(C(=O)Nc3ccc(C)c(Cl)c3)c(C(=O)Nc3ccccc3)sc2n1
COc1cc(Cl)c(C)cc1NC(=O)CCCN1C(=O)C(c2ccccc2)Oc2cccnc21 (stereo not drawn)
O=C(CSc1nc2ccccc2nc1Cc1ccc(F)cc1)Nc1ccc2c(c1)OCO2
Cc1ccc(NC(=O)Cn2cc(S(=O)(=O)c3ccc(F)cc3)c(=O)c3cc4c(cc32)OCO4)cc1
CC(C)(C)C(=O)Cn1c(=O)n(CCCCCC(=O)NCc2ccc3c(c2)OCO3)c(=O)c2sccc21
Cc1ccc(C(=O)CSc2nc3cc(C(=O)NC4CCCC4)ccc3c(=O)n2CC2CCCO2)cc1 (stereo not drawn)
Cn1c(=O)n(C)c2cc(N3CCCCC3)c(NC(=O)c3ccc(Cl)cc3)cc21
COc1ccc(C(=O)NCCn2cc(SCC(=O)Nc3ccccc3)c3ccccc32)cc1OC
CCOC(=O)C1(C)C=C(Nc2ccc(OC)cc2)C(=O)N1c1ccccc1 (stereo not drawn)
CCOc1nc(NC(=O)NS(=O)(=O)Oc2cccc(F)c2)nc(-c2ccccc2)n1
COc1ccc(CNC(=O)c2ccc3c(c2)N(Cc2ccccc2F)C(=O)c2ccccc2S3=O)cc1 (stereo not drawn)
COc1ccc(OC)c(NC(=O)Cc2c(C(=O)O)[nH]c3ccc(Cl)cc23)c1
Cc1cccc(C(=O)Nc2c(-c3ccc(F)cc3)nc3ccccn23)c1
O=C(c1ccc(Cl)cc1)N1CCCCC1CCN1CCOCC1 (stereo not drawn)
Cc1ccc(NS(=O)(=O)c2ccc3[nH]c4c(c3c2)CCCC4)c(C)c1
Cc1nn(CC(=O)NC2CCCCC2)c(=O)c2cc3cc(F)ccc3n12
O=C(CCCn1c(=O)c2cccn2c2ccc(F)cc21)NCCc1ccccc1
CCOC(=O)c1cccc(NC(=O)CCc2c(C)nc3cc(-c4ccc(Cl)cc4)nn3c2C)c1
COc1ccc(-c2noc(-c3ccc(NCc4ccco4)c([N+](=O)[O-])c3)n2)cc1
COc1ccc(NC(=O)Cn2cc(S(=O)(=O)c3ccc(C)cc3)c(=O)c3ccccc32)cc1OC
